Assay results as given in the supplement of paper PMC4604168 (melanoma cell lines).
Some of the results follow. Single values are uncertain, as repeats are few or missing.

What follows are molecules tested on IPC-298 (assay: cell count relative to DMSO control; melanoma cells; higher = more viable cells). Details: library dose: standard library concentration; 72 h.
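Also: cells treated in 1,536-well plates, then fixed and DAPI-stained, with nuclei counted from automated high-throughput microscope images.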

Structure (SMILES)	cell count
COc1cc2c(Oc3ccc4[nH]c(C)cc4c3F)ncnc2cc1OCCCN1CCCC1 [cediranib] + N#Cc1c(O)c2c(-c3ccc(-c4ccccc4O)cc3)csc2[nH]c1=O [A769662] (first compound 2 µM, partner dose 10 µM)	91.5%
CC(C)(C)c1cnc(CSc2cnc(NC(=O)C3CCNCC3)s2)o1 + CN(C)S(=O)(=O)c1ccc2c(c1)/C(=C/c1cc3c([nH]1)CCCC3)C(=O)N2 [SU6656] (first compound 0.05 µM, partner dose 2 µM)	92.4%
COc1cc2c(Oc3ccc4[nH]c(C)cc4c3F)ncnc2cc1OCCCN1CCCC1 [cediranib] + COc1ccc(COc2ccc(Cc3cnc(N)nc3N)cc2OC)cc1 [GW2580] (first compound 2 µM, partner dose 5 µM)	91.3%
CCCCCCCCc1ccc(CCC(N)(CO)CO)cc1 [fingolimod] + OCCn1cc(-c2cnc3nnn(Cc4ccc5ncccc5c4)c3n2)cn1 [PF04217903] (first compound 10 µM, partner dose 5 µM)	78.8%
NC(=O)c1ccc(N(C(N)=O)c2c(F)cccc2F)nc1-c1ccc(F)cc1F + Clc1ccc(Nc2nnc(Cc3ccncc3)c3ccccc23)cc1 [vatalanib] (first compound 2 µM, partner dose 10 µM)	69.5%
CCc1ccc(CCOc2ccc(CC3SC(=O)NC3=O)cc2)nc1 (stereo not given) [pioglitazone] + CC(C)CCN1c2nc(Nc3cc(F)c(O)c(F)c3)ncc2N(C)C(=O)C1C [BID1870] (first compound 10 µM, partner dose 1 µM)	77.7%
Cc1ccc(NC(=O)c2cccc(N(C)C)c2)cc1NC(=O)c1ccc(O)cc1 + CN(C)S(=O)(=O)c1ccc2c(c1)/C(=C/c1cc3c([nH]1)CCCC3)C(=O)N2 [SU6656] (first compound 10 µM, partner dose 2 µM)	67.8%
NC(=O)c1ccc(N(C(N)=O)c2c(F)cccc2F)nc1-c1ccc(F)cc1F + Cc1cc(N2CCOCC2)cc2[nH]c(-c3c(NC[C@@H](O)c4cccc(Cl)c4)cc[nH]c3=O)nc12 [BMS536924] (first compound 2 µM, partner dose 1 µM)	96.5%
Cc1ccc(NC(=O)c2cccc(N(C)C)c2)cc1NC(=O)c1ccc(O)cc1 + CCCCCCCCCCCC1=C(O)C(=O)C=C(O)C1=O [Embelin] (first compound 10 µM, partner dose 6 µM)	89.6%
CN(NC(=O)CC(=O)NN(C)C(=S)c1ccccc1)C(=S)c1ccccc1 + Cn1cc(/C=C2\C(=O)Nc3cccnc32)c2ccccc21 [GW441756] (first compound 0.03 µM, partner dose 2 µM)	60.7%
CCCCCCCCc1ccc(CCC(N)(CO)CO)cc1 [fingolimod] + O=C(O)[C@@H]1[O][Sb](=[O])([O][Sb]2(=[O])[O][C@H]([C@H](O)CO)[C@H](O)[C@H](C(=O)O)[O]2)[O][C@H]([C@H](O)CO)[C@@H]1O [stibogluconate] (first compound 10 µM, partner dose 10 µM)	75.1%
Cc1ccc(NC(=O)c2cccc(N(C)C)c2)cc1NC(=O)c1ccc(O)cc1 + COc1cc(N2CCC(N3CCN(C)CC3)CC2)ccc1Nc1ncc(Cl)c(Nc2ccccc2S(=O)(=O)C(C)C)n1 [NVP-TAE684] (first compound 10 µM, partner dose 0.4 µM)	92%
COc1cc2c(Oc3ccc4[nH]c(C)cc4c3F)ncnc2cc1OCCCN1CCCC1 [cediranib] + COc1cc(N2CCC(N3CCN(C)CC3)CC2)ccc1Nc1ncc(Cl)c(Nc2ccccc2S(=O)(=O)C(C)C)n1 [NVP-TAE684] (first compound 2 µM, partner dose 0.4 µM)	85.1%
COc1cc2c(Oc3ccc4[nH]c(C)cc4c3F)ncnc2cc1OCCCN1CCCC1 [cediranib] + Cn1cc(/C=C2\C(=O)Nc3cccnc32)c2ccccc21 [GW441756] (first compound 2 µM, partner dose 2 µM)	85.6%
COc1cc2c(Oc3ccc4[nH]c(C)cc4c3F)ncnc2cc1OCCCN1CCCC1 [cediranib] + Oc1cc(-c2nc(-c3ccccc3)[nH]c2-c2ccncc2)ccc1Cl [L779450] (first compound 2 µM, partner dose 1 µM)	77.6%
